# From PubChem BioAssay AID1347165 (National Center for Advancing Translational Sciences (NCATS), 2019)
# The campaign covered roughly 220,000 compounds. About 5,700 (2.6%) were called active. This list was built around the results that the source calls inconclusive (neither active nor inactive); the mix of calls is not that of the screen. Calls come from the whole dose curve; as a rule, active = well fitted inhibition curve with a large enough effect; inconclusive = small, poorly fitted or top-dose-only effect; inactive = no such curve, though single readings can be large or run the other way. Where the call is inconclusive, the potency comes from a doubtful curve fit.
# Molecular target: Lysine-specific demethylase 5B (Homo sapiens) (UniProt Q9UGL1)
# Assay: Primary screen for KDM5B Histone Demethylases FDH-coupled qHTS; note: nearly all actives have a fitted effect of over 70% in size; for activity change, negative = inhibition: 0% is about no effect
# Conditions: FDH-coupled NADH fluorescence (FDH is formaldehyde dehydrogenase); activity change, negative = inhibition: at 57.7 µM (top of the series) unless noted
# How it was run: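 Coupled FDH/NAD⁺ fluorescence readout. KDM5BΔAP 200 nM final; compound titration, 10 min RT preincubation; substrate mix 12.5 µM H3K4me3, 25 µM 2-OG, 50 µM Fe(II), 100 µM ascorbate, 0.25 mM NAD⁺, 0.25 U/mL FDH; ΔRFU over 30 min.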
# Potency is the fitted concentration of half-maximal effect; tags give direction and shape of the fitted curve.
# UniProt Q9UGL1, sequence (Q9UGL1 whole entry, looked up): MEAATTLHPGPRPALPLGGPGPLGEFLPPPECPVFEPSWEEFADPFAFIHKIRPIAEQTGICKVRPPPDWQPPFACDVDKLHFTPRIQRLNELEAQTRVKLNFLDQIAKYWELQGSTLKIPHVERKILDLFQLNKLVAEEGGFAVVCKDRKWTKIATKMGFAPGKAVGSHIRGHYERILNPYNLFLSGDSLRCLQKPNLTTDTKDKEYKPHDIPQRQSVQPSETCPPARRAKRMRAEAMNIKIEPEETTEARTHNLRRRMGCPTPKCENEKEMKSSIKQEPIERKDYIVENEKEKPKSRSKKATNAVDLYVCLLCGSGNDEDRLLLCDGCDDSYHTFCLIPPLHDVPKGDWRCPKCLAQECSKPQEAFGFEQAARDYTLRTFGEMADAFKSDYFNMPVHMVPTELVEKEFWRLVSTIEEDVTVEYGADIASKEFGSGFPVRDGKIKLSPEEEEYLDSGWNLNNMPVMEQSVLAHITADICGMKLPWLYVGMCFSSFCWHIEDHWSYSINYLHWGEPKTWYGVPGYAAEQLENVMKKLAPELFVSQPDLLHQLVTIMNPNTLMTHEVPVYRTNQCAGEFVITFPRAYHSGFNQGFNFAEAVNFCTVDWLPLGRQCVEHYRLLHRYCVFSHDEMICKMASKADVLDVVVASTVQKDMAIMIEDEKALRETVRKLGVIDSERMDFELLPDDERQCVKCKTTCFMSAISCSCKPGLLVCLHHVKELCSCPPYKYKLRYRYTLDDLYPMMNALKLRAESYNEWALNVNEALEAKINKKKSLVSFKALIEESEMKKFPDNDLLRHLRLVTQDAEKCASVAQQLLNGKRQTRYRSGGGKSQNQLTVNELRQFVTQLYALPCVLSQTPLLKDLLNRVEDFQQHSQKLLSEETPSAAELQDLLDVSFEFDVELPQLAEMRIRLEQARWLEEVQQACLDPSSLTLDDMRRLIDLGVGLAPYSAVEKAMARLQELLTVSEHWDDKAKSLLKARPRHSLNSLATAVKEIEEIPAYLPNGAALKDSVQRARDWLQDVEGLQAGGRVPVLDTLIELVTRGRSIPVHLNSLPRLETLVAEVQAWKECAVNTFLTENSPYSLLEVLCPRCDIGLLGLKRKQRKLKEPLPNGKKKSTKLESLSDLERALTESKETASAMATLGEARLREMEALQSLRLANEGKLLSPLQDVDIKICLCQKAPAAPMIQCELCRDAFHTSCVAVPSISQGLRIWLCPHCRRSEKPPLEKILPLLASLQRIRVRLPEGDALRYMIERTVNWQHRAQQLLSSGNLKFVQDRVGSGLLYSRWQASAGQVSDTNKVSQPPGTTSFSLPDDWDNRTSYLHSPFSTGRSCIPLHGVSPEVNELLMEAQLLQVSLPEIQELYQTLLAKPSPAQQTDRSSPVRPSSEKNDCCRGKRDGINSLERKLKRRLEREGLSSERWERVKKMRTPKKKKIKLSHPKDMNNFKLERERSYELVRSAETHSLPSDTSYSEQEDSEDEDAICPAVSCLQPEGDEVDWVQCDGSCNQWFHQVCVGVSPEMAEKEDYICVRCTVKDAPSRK
Compound,"activity change, negative = inhibition",Potency
O=C(NC1(C(F)(F)F)N=C(c2ccccc2)N(CCc2ccccc2)C1=O)C1CC1 (stereo not given),inactive: 10%,–
CC(C)(C)CC(=O)NCc1cccnc1Oc1cccc(C(F)(F)F)c1,inactive: 3.98%,–
Clc1ccc(N=Cc2ccc3ccccc3c2)cc1Cl,–,"inconclusive: 22.4 µM [inhibitor, partial curve, poor fit]"
Cc1ccc(NC(=O)c2cccnc2C(=O)O)nc1,–,"inconclusive: 28.2 µM [inhibitor, partial curve, poor fit]"
O=C1N(Cc2ccc(F)cc2)C[C@H]2CN(CC3CC3)CCN12,inactive: -3.88% [at 86.2 µM],–
O=C(NC1(C(F)(F)F)N=C(c2ccccc2)N(Cc2ccco2)C1=O)c1cccs1 (stereo not given),inactive: -14%,–
Cc1cc(-c2nc3ncccc3o2)ccc1NC(=O)CC12CC3CC(CC(C3)C1)C2,–,"inconclusive: 39.8 µM [inhibitor, single point]"
O=C(OCc1cccc(F)c1)c1ccc(C2Nc3ccccc3S(=O)(=O)N2)cc1 (stereo not given),–,"inconclusive: 28.2 µM [inhibitor, partial curve, poor fit]"
Cc1ccc(Cl)cc1-n1c(=O)c2sc3ccccc3c2n(CC(=O)NC2CCCCC2)c1=O,–,"inconclusive: 28.2 µM [inhibitor, partial curve, poor fit]"
Cc1nn2c(c1-c1cccnc1N1CCOCC1)N(Cc1ccc3c(c1)CCO3)CCC2,–,active: 25.1 µM
O=Cc1ccc(OCc2ccc(Cl)cc2)c(Br)c1,inactive: -13.7%,–
COc1cccc(CCNC(=O)c2c(C)noc2-c2ccc(OC(F)(F)F)cc2)c1,inactive: -12.4%,–
CCC[C@H]1CN(Cc2c(C)noc2C)C[C@@H]1NC(=O)CN(C)C(N)=O,–,"inconclusive: 25.1 µM [inhibitor, single point]"
Cc1coc2c(C)c3oc(=O)c(CC(=O)NCc4ccccc4)c(C)c3cc12,–,"inconclusive: 3.55 µM [inhibitor, partial curve, poor fit]"
c1ccc(-c2ccnc3nc(-c4cccs4)nn23)cc1,–,active: 31.6 µM
O=C(NCCCNC(=O)c1cc2ccccc2[nH]1)c1cccc(F)c1,–,"inconclusive: 31.6 µM [inhibitor, single point]"
Cc1ccc(NS(=O)(=O)c2ccc(N/N=C/c3cc(C)[nH]c3C)c([N+](=O)[O-])c2)c(C)c1,–,"inconclusive: 22.4 µM [inhibitor, single point]"
COc1cccc(-c2cc(C3CCN(S(=O)(=O)c4ccc(F)cc4F)CC3)[nH]n2)c1,–,"inconclusive: 14.1 µM [inhibitor, partial curve]"
COc1ccc(CN2CCN(Cc3cccc(F)c3)CC2)cc1OC,–,"inconclusive: 5.01 µM [inhibitor, full curve, poor fit]"
CCOC(=O)c1cc2cc(C(C)C)ccc2[nH]1,–,"inconclusive: 31.6 µM [inhibitor, partial curve, poor fit]"
O=C(Nc1ccc2nc(SCCOc3ccccc3)sc2c1)c1cccs1,–,"inconclusive: 35.5 µM [inhibitor, partial curve, poor fit]"
Cc1noc(/C=C\c2ccc(S(=O)(=O)N3CCN(C)CC3)cc2)c1NC(=O)C1CC1,inactive: -3070%,–

Compound,"activity change, negative = inhibition",Potency
CS(=O)(=O)N1CCC(C2CCN(C3CCSCC3)C2)CC1 (stereo not given),–,"inconclusive: 22.4 µM [inhibitor, single point]"
O=C(O)c1ccc(CN2CCC(c3cc(N4CCCC4)ncn3)CC2)cc1,inactive: -16.8%,–
O=C(NC1CCN(c2cc(-c3ccccc3)[nH]n2)CC1)C1CCCCC1,–,"inconclusive: 31.6 µM [inhibitor, partial curve, poor fit]"
CCS(=O)(=O)N1CC[C@H]2C(=O)NCCCCCCN(Cc3ccncc3)[C@@H]2C1,–,"inconclusive: 25.1 µM [inhibitor, partial curve, poor fit]"
Cc1cc(C(F)F)n2nc(C(=O)Nc3cc(Cl)ccc3C)nc2n1,–,"inconclusive: 44.7 µM [inhibitor, single point]"
O=C(Nc1ccc2c(c1)CCC2)c1cccc2ccccc12,inactive: 4.79%,–
CC(C)Oc1cccc(-c2nc(C(=O)N(C)Cc3ccccc3)cs2)c1,inactive: -31.1%,–
O=C1CN(C(=O)CCC(=O)N2CCc3c(nc4cc(-c5ccccc5)[nH]n4c3=O)C2)c2ccccc2N1,–,active: 28.2 µM
COc1cc(F)ccc1-c1cc2c(nc1OC)nc(CC1CC1)n2C,–,active: 35.5 µM
Cn1nc(C(=O)Nc2ccc(S(=O)(=O)C(F)F)cc2)c2ccccc2c1=O,–,"inconclusive: 39.8 µM [inhibitor, single point]"
O=C(c1ccsc1)N1CCCN(c2cc(-c3ccc(Cl)cc3)[nH]n2)CC1,–,"inconclusive: 17.8 µM [inhibitor, single point]"
O=C(CCC1CCCC1)N1CCc2c([nH]c3ccccc23)C1c1ccc(Cl)cc1 (stereo not given),inconclusive: -36.6% [inhibitor],–
O=C(Nc1cccc(F)c1)C1CC2CCCC(C1)C2=O (stereo not given),inactive: 2.68%,–
Cc1ccc(-n2nc3ccc(NC(=O)c4oc5ccc(C)cc5c4C)cc3n2)cc1,–,"inconclusive: 25.1 µM [inhibitor, partial curve, poor fit]"
Cc1ccc(NC(=O)C2CCN(c3cc(C(F)(F)F)ncn3)CC2)cc1,–,active: 25.1 µM
COCCCN1CC2(CCN(C(=O)c3ccccc3N(C)C)CC2)CC1=O,–,"inconclusive: 31.6 µM [inhibitor, partial curve, poor fit]"
Cc1cc2n(CC(O)COc3ccc(C(C)(C)C)cc3)c(=O)c3ccccc3n2n1 (stereo not given),–,"inconclusive: 35.5 µM [inhibitor, single point]"
CCOC(=O)c1cc(-c2ccc(C)cc2)n(CCC(=O)Nc2nc3c(C)cccc3s2)c1C,–,"inconclusive: 1.78 µM [inhibitor, full curve, poor fit]"
Cc1ccc(NC(=O)CN(C)C(=O)COC(=O)c2nc3nccc(C)n3n2)cc1,inactive: 17.9%,–
N#CC1=C(N)Oc2cc(O)ccc2C1c1ccc(OCc2ccc(Br)cc2)cc1 (stereo not given),–,"inconclusive: 39.8 µM [inhibitor, single point]"
Cc1ccc2c(c1)c(=O)c1ccccc1n2CCCC(=O)Nc1ccc(C)c(F)c1,–,"inconclusive: 28.2 µM [inhibitor, partial curve, poor fit]"
CCCN1CCC(NC(=O)CC(F)(F)F)CC1,inactive: 2.36%,–

Compound,"activity change, negative = inhibition",Potency
Cc1cc(OC(C)C(=O)NCCCn2ccnc2)c2c(C)c(C)c(=O)oc2c1 (stereo not given),–,"inconclusive: 22.4 µM [inhibitor, partial curve, poor fit]"
Cc1cn2nc(C(=O)NCc3cccc(Cl)c3)cc2c(=O)[nH]1,inactive: -8.58%,–
COc1ccc(C(=O)N2CCC(c3n[nH]c(=O)n3-c3ccc(C)cc3)CC2)c(OC)n1,–,"inconclusive: 1.41 µM [inhibitor, full curve]"
CCOC(=O)N1CCN(Cc2nc3cc(NC(C)=O)ccc3n2C(C)C)CC1,–,"inconclusive: 28.2 µM [inhibitor, partial curve, poor fit]"
CNC(=O)c1ccc(C(=O)O)cn1,inactive: -19.9%,–
Cc1cc2nc(CSCC(=O)Nc3cccc(C)c3C)cc(=O)n2o1,inactive: -5.55%,–
CCCNC(=O)N1CC[C@@H](CC(=O)O)[C@@H](CC2=NCCc3cc(OC)ccc32)C1,–,"inconclusive: 35.5 µM [inhibitor, single point]"
COc1ccccc1N1CCN(C(=O)C2CCN(S(=O)(=O)c3c(C)noc3/C=C/c3ccc(C)cc3)CC2)CC1,–,"inconclusive: 1.41 µM [inhibitor, full curve, poor fit]"
Nc1nc2c(c(=O)[nH]1)CCN(C(=O)Cc1c[nH]c3ccccc13)C2,–,"inconclusive: 22.4 µM [inhibitor, single point]"
COc1ccc(C(=O)NC2CCN(c3cc(-c4ccc(Cl)cc4)[nH]n3)C2)c(C)c1 (stereo not given),–,"inconclusive: 12.6 µM [inhibitor, partial curve, poor fit]"
Cc1csc2c(=O)sc(NC(=O)c3ccc(F)cc3)nc12,–,"inconclusive: 20 µM [inhibitor, single point]"
COc1ncccc1CN1CCCn2nc(C)c(-c3ccccc3C(C)C)c21,–,"inconclusive: 25.1 µM [inhibitor, partial curve, poor fit]"
Cc1ccc(C)c(N2CCN(C(=O)Nc3cn(CC(C)C)c(=O)c4ccccc34)CC2)c1,–,"inconclusive: 28.2 µM [inhibitor, partial curve, poor fit]"
O=C(Cc1cccnc1)N1CCC2(CC1)CN(Cc1ccccc1)CC2CO (stereo not given),–,"inconclusive: 28.2 µM [inhibitor, single point]"
COc1ccc(CN2C[C@@H](C(N)=O)[C@H](c3nc(C)no3)C2)cc1Cn1cccn1,–,"inconclusive: 6.31 µM [inhibitor, single point]"
CC(NS(=O)(=O)Cc1ccc(F)cc1)c1cccnc1 (stereo not given),inactive: 0.536%,–
COc1cccc(CCNC(=O)Cn2c(-c3cccs3)cc3ccccc32)c1,–,"inconclusive: 28.2 µM [inhibitor, partial curve, poor fit]"
COc1ccc(C(=O)Nc2ccc(-c3nc4ccccc4o3)cc2)cc1OC,–,"inconclusive: 39.8 µM [inhibitor, single point]"
O=S(=O)(N[C@@H]1C[C@H](Cn2cc(C3CC3)nn2)[C@@H](O)[C@H]1O)c1ccccc1,–,"inconclusive: 22.4 µM [inhibitor, partial curve]"
Cc1ccc2c(c1)-c1cc(C)nn1C(c1ccsc1)N2 (stereo not given),–,"inconclusive: 22.4 µM [inhibitor, partial curve, poor fit]"
CSc1ccc(NC(=O)c2ccc3c(c2)N(C)C2CCCCN2C3=O)cc1 (stereo not given),–,"inconclusive: 35.5 µM [inhibitor, partial curve, poor fit]"
